The list shows a part of the results. The full chains were built here from the parent and the listed change. Values near 0.05 are background.
B1: TEV protease; numbered along this chain (parent)
chain: MGESLFKGPRDYNPISSSICHLTNESDGHTTSLYGIGFGPFIITNKHLFRRNNGTLVVQSLHGVFKVKDTTTLQQHLVDGRDMIIIRMPKDFPPFPQKLKFREPQREERICLVTTNFQTKSMSSMVSDTSCTFPSGDGIFWKHWIQTKDGQCGSPLVSTRDGFIVGIHSASNFTNTNNYFTSVPKNFMELLTNQEAQQWVSGWRLNADSVLWGGHKVFMVKPEEPFQPVKEATQL

Variants of: B1
Assay: raw area under fraction-flipped curve 0-4 h after induction (AUC4h, not background-subtracted), DNA-recorder readout of cleavage of the substrate (dimensionless); higher = more cleavage of the substrate by the protease variant
Conditions: temperature: 34 °C; time window: 0-4 h after rhamnose induction
Procedure: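 In vivo DNA recorder in E. coli TOP10(DE3) ΔrhaA at 34 °C. Each TEVp single-site mutant (parent TEVp 0) is paired with a single-site variant of the 7-mer TEVs (canonical ENLYFQ|S). The substrate sits between flexible linkers in a Bxb1-sfGFP-TEVs-SsrA fusion, so cleavage stabilises Bxb1 and speeds flipping of a recombination array, read by NGS. The value is the raw area under the fraction-flipped curve over 0-4 h after rhamnose induction (AUC4h), with ≥20 reads per time point. It is not background-subtracted; inactive controls average about 0.047.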
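Note: Bxb1 expression induced with 0.2% (w/v) L-rhamnose at OD600 near 0.5, cultures sampled hourly, flipped fraction per protease–substrate barcode pair counted by paired-end Illumina sequencing.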

Variant	area with substrate ENCYFQS	area with substrate ENEYFQS	area with substrate ENFYFQS	area with substrate ENNYFQS	area with substrate ENTYFQS	area with substrate ENDYFQS	area with substrate ENKYFQS	area with substrate ENPYFQS	area with substrate ENQYFQS	area with substrate ENRYFQS	area with substrate ENVYFQS	area with substrate ENAYFQS	area with substrate ENGYFQS	area with substrate ENHYFQS	area with substrate ENMYFQS	area with substrate ENSYFQS	area with substrate ENWYFQS	area with substrate ENYYFQS	area with substrate ENIYFQS
G63K	0.0699	0.0522	0.0684	0.0487	0.058														
T132H	0.0609		0.0699		0.0566	0.0644	0.0555	0.0489	0.0538	0.063	0.0609								
F226S		0.0654	0.065		0.0322	0.0599		0.0624	0.0604	0.0601		0.082	0.0702	0.0749	0.0955	0.136	0.069	0.0632	
T71Y	0.0804	0.0622			0.0644				0.0604					0.0536	0.078	0.0479		0.0605	0.0968
T71M	0.0452	0.0665	0.0513	0.0609		0.0506	0.0611		0.0727					0.0608				0.0381	
V220T	0.0764		0.0615	0.0409		0.0412				0.0726		0.0592	0.0453						
V220Y	0.0518	0.062	0.0643		0.0457		0.0646	0.0786	0.0568		0.0768	0.0719	0.0738			0.0552			0.105
E107C	0.0526	0.0713		0.0776		0.0617	0.0495	0.0546					0.0674			0.0614	0.0735		
Q227Y	0.059			0.0596	0.049	0.0756			0.0634	0.0518	0.0774	0.0504	0.0577	0.0662	0.0717	0.0632		0.0583	
Q227N	0.0863	0.0496	0.082	0.0694	0.0525	0.0618	0.0536	0.107	0.0561	0.047	0.0847	0.0845	0.06	0.0572		0.0646			0.129
Q227G	0.0579			0.0376		0.0594		0.0592	0.0565	0.067	0.0881	0.0674		0.0706		0.0702			
E231P		0.0563			0.0762	0.0557			0.0681		0.0772	0.0615		0.0565		0.0595			0.115
E231R		0.048	0.0667	0.0484		0.0572			0.0623	0.0575	0.0784	0.051	0.0466	0.0722	0.1	0.065		0.0689	
Q59T	0.0683	0.0636	0.0264		0.0672				0.058	0.0497	0.0772			0.0567		0.0397		0.0449	
P94M	0.0638	0.0481				0.0687		0.0441	0.0661	0.0382	0.0536			0.059		0.068		0.0557	
D82E	0.0634	0.0693	0.0755		0.0981	0.0671		0.0682		0.0637	0.0512			0.0607		0.0598		0.0703	0.0815
K7I	0.0689	0.0595	0.0697	0.0767	0.0607		0.0486	0.0731			0.0613				0.073			0.0795	

Variant	area with substrate ENCYFQS	area with substrate ENEYFQS	area with substrate ENFYFQS	area with substrate ENNYFQS	area with substrate ENTYFQS	area with substrate ENDYFQS	area with substrate ENKYFQS	area with substrate ENPYFQS	area with substrate ENQYFQS	area with substrate ENRYFQS	area with substrate ENVYFQS	area with substrate ENAYFQS	area with substrate ENGYFQS	area with substrate ENHYFQS	area with substrate ENMYFQS	area with substrate ENSYFQS	area with substrate ENWYFQS	area with substrate ENYYFQS	area with substrate ENIYFQS
T115V	0.0608	0.0531	0.0628	0.0679		0.0601			0.0536	0.0624						0.0653		0.0548	
S158R	0.0692	0.0528		0.0294	0.0552	0.0404			0.048		0.0465		0.0587		0.0605				
H143I	0.0668				0.0512	0.0578	0.0792		0.0498	0.0433			0.0589						
P222R		0.0666	0.0566		0.0558	0.0601		0.069	0.0679	0.0666	0.0581	0.0672		0.0753		0.0552			
P222N		0.0594	0.05		0.0599	0.0588	0.0578	0.0652	0.0546	0.0628	0.075	0.0618	0.063		0.0928	0.0571		0.0533	
I145H	0.0703	0.0565			0.0585	0.0583		0.0581	0.0609	0.0474						0.0712			
P228A		0.0608				0.0665			0.0622	0.0356	0.0788	0.0489				0.043			
P228C	0.0725	0.0481	0.0665	0.061	0.0668	0.0562	0.0634	0.0538	0.0567		0.0898	0.091	0.0377	0.0601	0.0738	0.0644	0.0582	0.0428	
P228E	0.0652	0.0191			0.0644			0.0568	0.055		0.0778	0.0596		0.0601		0.0634			
P228D	0.078	0.0579	0.0618			0.0859			0.0813			0.0564	0.0531	0.0537		0.072			
Q97F	0.0688	0.0537	0.0602						0.0732		0.0796								
L61V	0.0792	0.0571	0.057		0.0641	0.0618			0.093		0.0757				0.0802	0.0599			
F38D	0.0517	0.0387		0.0439		0.0146			0.0698										
C111F	0.0816	0.0479	0.068	0.0643	0.0833	0.0546		0.0518	0.0608	0.0549	0.102		0.0641	0.0568		0.0548		0.0603	
H62C	0.0666	0.0593		0.0443	0.0567	0.0609	0.0755		0.0559		0.0704			0.0674		0.0587			0.087
I139D	0.0615	0.0694		0.0646	0.0456	0.0607	0.104	0.0579		0.0549	0.0701		0.0648	0.0676		0.0642			
